According to paper PMC10668032:
The other results are listed elsewhere or left out. At the low end of the ranking the order means little.

Biological target: SIX1 homeodomain (reference allele) (UniProt Q15475)
Assay: universal protein binding microarray
Details: Universal all-10-mer PBM (8x60K, AMADID 030236), 300 nM GST-tagged protein, Alexa Fluor 488 anti-GST; buffer, salt, pH and temperature not stated; high values mean tight binding; most listed sequences are background and not binding sites; double strand, one strand shown

Sequence	binding signal [E-score]
CATCTATA	0.251
GATGCAAC	-0.0128
CCAGACAG	-0.181
GAGAGCCC	-0.0896
CACATAGC	-0.127
AACAAGTC	-0.153
AGATCGTG	0.204
ATCCGAGA	0.328
GCCAGCCC	-0.199
ACCGAAGG	-0.0232
ACGCCACA	0.0585
ACCTATCC	0.262
ATTCTATA	0.0884
CACGTTAC	-0.0593
CAACATAG	0.128
CTCTCGCC	-0.293
CTGTACAC	0.0429
TGTTCTAA	-0.139
GATGTACC	0.0177
GACGTTAC	-0.335
CCAGAGAG	-0.0597
AACATCCT	-0.102
TAGCGACA	-0.0229
CCGCGAAC	0.0706
ATTTAACG	-0.296

Sequence	binding signal [E-score]
CGTCTTAG	-0.143
CACTCTGA	-0.107
TAGTTACA	-0.0453
CACTAACA	-0.0258
CCCGGCAC	-0.291
CCACCGGC	-0.0662
CACGAGAA	0.0576
TAAGACTA	0.0664
ATGTAATC	0.196
GGGACCAA	-0.356
AGCGCACT	-0.221
GACCGATC	0.246
CTTTTCTA	-0.174
GCACTCAA	-0.0574
AGGGGACT	-0.137
CATTCTTA	0.122
AGGTGTAC	0.182
AGGTCTGA	-0.0938
ACCAGTTC	-0.0617
CGTGCACA	-0.225
GCCAAGCC	-0.144
AACATCGG	-0.0255
ATCTCCTA	0.159
CATTCGAC	-0.0437
ACGGATTA	0.301

Sequence	binding signal [E-score]
ACCTCAGT	-0.00928
ACGACGGC	-0.151
GGCACCAC	-0.178
GTCTGAAA	-0.152
CCGGGTGA	0.201
AAAACTCT	-0.346
TCTTTTAA	-0.129
CACCACAG	0.113
ACATGTTC	-0.194
GACCGTAC	-0.205
AGACGGCC	-0.041
CTAGTGAC	-0.15
ATGGCAGG	-0.153
AAGGCGAT	0.135
AGCGGGAC	-0.289
AATCCAAT	0.023
GCAATAAA	-0.138
CGCCCTAG	0.00937
ACTCTCCT	-0.00755
ACCACATC	-0.0285
AAACCCGG	0.163
CTGTCAAA	-0.236
TATTTAGA	0.131
ATAGAATC	-0.00212
ATGGCGAA	-0.173

Sequence	binding signal [E-score]
ATGGACAA	-0.144
ACACGTCT	0.0928
CGACCTAC	-0.122
GAGATGAC	-0.016
AGAGAATA	-0.0147
GCACCCTA	0.086
CCACTACG	-0.135
ATTCGTCA	-0.0295
AAAGACCC	-0.0854
GATGCGCC	-0.0391
CCTAGTCA	-0.229
ATCTTTTG	0.0815
ACCTGACT	-0.0751
AAATGCAT	-0.126
GTCTCGTA	0.172
CTCCTTGA	-0.0249
CGACTGCA	-0.194
GAACTAGA	0.0845
CCCAGCTA	-0.021
ATGTAGAG	-0.027
ATGTCATG	-0.0473
GCACATCC	-0.182
CGTGGTAC	0.0106
AGTAAAAA	-0.116
ACGTCATC	0.00519

Sequence	binding signal [E-score]
CACAAATA	-0.0694
GATATTTA	0.157
GGGATTAC	0.167
ATTTTATG	0.0323
CGACTCTA	-0.0463
AGTTACCG	-0.175
CTCTTTGC	-0.255
AAAGCCGA	-0.202
CGCAGACG	-0.0639
CTGTAAGC	-0.141
CTATTTTA	-0.00639
ATTAGGCA	-0.0243
GAGCGCCC	-0.211
TATACACA	0.263
GCTAGTAA	-0.0483
CTTTCAAC	-0.247
AAATCATC	-0.0771
ACGGGGAA	-0.0663
TACTAGGA	0.0517
CATCATCC	-0.028
CGGTATGA	0.225
AAATGAAT	-0.116
CTTGCCTC	-0.124
ACTTCTGC	-0.128
ACCGATCC	0.382

Sequence	binding signal [E-score]
TGTTACAA	-0.01
TATCTGAA	0.153
TCGGATAA	0.336
TAGTTCAA	-0.375
GCTCTGCC	-0.238
AGCGTGAG	-0.189
GTCATTAA	0.0474
GCCTGCTA	0.0147
AACCGGTT	0.0568
TGAATGCA	-0.118
GTTCTTTA	-0.245
CAGCTAGG	0.035
CACTGTGC	-0.1
ACGGTGGA	0.0277
AAGTGCCC	-0.319
AGGCCTAA	-0.0905
GCGTCATA	0.0247
GTACAGGA	-0.104
CTATTGCC	-0.0372
AGCAAGTA	-0.138
GCGTGAAA	-0.0628
TAGTATAA	0.199
GGCGCGGA	0.129
GCTTATGA	0.0935
GCATCACA	0.0924

Sequence	binding signal [E-score]
CGTCTGAG	0.0443
CGAGGACG	-0.0709
TCGTCTCA	0.22
AACTTAAA	-0.131
CGCCTACA	-0.196
ACGTAAAT	-0.153
AGAATGTG	-0.262
AGGATACA	0.337
AAACTAAT	-0.0246
ATTGGGTC	-0.159
CGATTATC	0.181
AAGGTCGA	-0.197
GCGTTGAC	-0.25
AGCGCCAC	-0.185
CAGTCGGC	-0.118
CCGGGAGC	-0.107
TACACGCA	0.0534
AACCGCTC	-0.209
GAAAAGGC	-0.18
CACGATAA	0.0161
CACTGAAC	-0.152
CCATCTTA	-0.0205
